Laboratory results published in article PMC11603075 (Communications Biology, 2024).

Key:
[1] = target: T1, KDM4E (Homo sapiens, UniProt B2RXH2); assay: KDM, RDM and hydroxylation (+16 Da) activities of KDM4E with histone peptide variants by MS; assay type: biochemical; conditions: MALDI–TOF or LC–MS, n = 3
T1 construct: KDM4E1–337; made in house; host or cells: E. coli
T1 sequence (B2RXH2 1-337): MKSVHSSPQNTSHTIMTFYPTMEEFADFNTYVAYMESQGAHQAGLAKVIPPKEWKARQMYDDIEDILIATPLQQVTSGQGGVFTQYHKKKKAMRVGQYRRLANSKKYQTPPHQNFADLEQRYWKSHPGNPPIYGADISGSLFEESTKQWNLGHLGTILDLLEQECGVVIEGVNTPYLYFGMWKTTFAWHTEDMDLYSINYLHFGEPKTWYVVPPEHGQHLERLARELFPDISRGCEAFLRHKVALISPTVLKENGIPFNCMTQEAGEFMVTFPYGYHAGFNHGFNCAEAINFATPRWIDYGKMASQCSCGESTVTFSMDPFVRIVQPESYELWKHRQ
Protocol: (§1) Fig. 3 KDM4E-catalysed hydroxylation occurs at Arg-20 on histone H2a peptide. a LC–MS/MS analysis of H2a(1–20) after KDM4E treatment. Two potential hydroxylation sites, R17 and R20, were identified, with the latter more likely (Supplementary Fig. 9). b Peptide variant studies support Arg-20 hydroxylation; specific activities: H2a(1–20), 0.65 nmol min^−1 mg^−1 SD: 0.073; H2a(1–20) with a C-terminal carboxylic acid (indicated with an -OH), no activity; H2a(1–20)R20A, no activity; H2a(1–20)R20K*, no activity; H2a(1–20)R20Kme3*, 0.44 nmol min^−1 mg^−1 SD: 0.04; H2a(1–20)R3me2a*, 0.51 nmol min^−1 mg^−1 SD: 0.05; H2a(1–20)R3A, 0.37 nmol min^−1 mg^−1 SD: 0.002; H2a(1–21)*, 0.65 nmol min^−1 mg^−1 SD 0.02; H2a(1–25, 0.35 nmol min^−1 mg^−1 SD: 0.044; and H2a(10–29), 0.02 nmol min^−1 mg^−1 SD: 0.013. Measurements employed MALDI–TOF MS except when labelled with*, which employed LC–MS (Supplementary Fig. 10 for representative MS data). n = 3 independent assays. c KDM, RDM and hydroxylation (+16 Da) activities of KDM4E are sequence and context dependent. Histone peptides (H2a, H3, H4) and variants (wild type residue in red, replaced with either K, Kme3, R or Rme2a) were incubated with KDM4E and analysed on MALDI–TOF MS. KDM, RDM and hydroxylation (+16 Da) were detected in some but not all peptides (Supplementary Fig. 10 for representative MS data). (−) No mass changes observed. n = 3 independent assays. See Supplementary Table 6 for conditions. TEXT PRINTED IN THE PICTURE: (c) H2a: K/R replacement K: -; K/R replacement Kme3: KDM/ROH; K/R replacement R: ROH; K/R replacement Rme2a: KDM/ROH | (c) H3: K/R replacement K: -; K/R replacement Kme3: KDM; K/R replacement R: -; K/R replacement Rme2a: RDM | (c) H4: K/R replacement K: -; K/R replacement Kme3: -; K/R replacement R: -; K/R replacement Rme2a: RDM DOUBTS OF THE COPYIST ABOUT THIS PICTURE: Panel c: the table cells are qualitative activity classes (KDM, RDM, ROH, -) for peptide variants, not numbers; it is uncertain whether they count as results. / Panel b: the bar chart prints no values beside the bars, so nothing was taken from it.
(§2) MS-based screening assays with peptides and calf thymus histones were as reported; see Supplementary Table 6 for conditions. Time course assays were based on reported procedures. In brief, equal volumes of the enzyme and substrate solutions were combined to initiate the reaction; 10 µL of 2% (v/v) formic acid (HCOOH) in ddH2O or 100% methanol was added to 10 µL of the reaction mixture to quench reactions at different time points. Unless otherwise stated, time course assays were carried out in triplicate. In some cases, LC–MS was used instead of MALDI-TOF MS to avoid a MALDI matrix induced artefact with the hydroxylated product (Supplementary Fig. 16).
Supplementary Figure 10 KDM, RDM and hydroxylation (+16 Da) activities of KDM4E are sequence and context dependent. Representative MALDI–TOF or LC –MS spectra for incubation of KDM4E with: (a) H 2 a( 1–20) w it h a C -terminal carboxylic acid (indicated by -OH ) , (b) H2 a( 1–20 )R2 0A, and (c) H2 a( 1–20 )R2 0K […]
and (p) H4 (1 –21)R3Kme3 showing no mass shift s; Charge st at e of labelled ions: [M + H] 5+ for (a), (c–e), and (g), and [MH] + for (b), (f) a nd (h–p). *L ow le v e l MA L D I–TOF MS peaks indicating ~10% product formation. n = 3 (independent assays). Y-axis: relative abundance (%). See Supplem ent ary T able 6 for assay condit ions.
See Figure 3b for specific activities of H2a peptide panel and Figure 3c for summary of K/R subst it ut ions of wild type H2a, H3 and H4 sequences. The –14 Da peak indicated in (f) a n d (h) is due to a MALDI–T O F MS derived modification – se e Supplementary Figure 16.
(§3) [ E nz ym e] [Peptide] [2OG] [Ascorbate] [(NH4)2F e(S O4)2] [TCEP] Buffer pH7.5 Enzyme Cognate substrate (mM) (mM) (mM) (mM) (mM) (mM) [HE PE S]
Supplementary Table 6 Summary of MS assay conditions for substrate screening. These conditions enabled efficient turnover of established substrates. […]

[2] = target: T1, KDM4E; assay: Specific hydroxylation activity of KDM4E; assay type: biochemical; conditions: for extent of hydroxylation (in words): KDM4E, relative to H2a(1–20)
Protocol: as §1, §2
Data collected from time course assay(s) were used to plot the % conversion vs time (min) using GraphPad Prism5 version 5.04; the resultant slopes were used to fit a line with linear regression to the first-order region of the reaction. The resultant gradient was then converted from % product formation min^−1 to amount of peptide converted (demethylation and / or hydroxylation) in µM.
Supplementary Figure 17 Comparison of specific hydroxylation activities of KD M4E with H2a(1–20) when anal ysed by MALDI-TO F MS or LC–MS. Comparison of specific activities for KDM4E catalysed hydroxylation of H2a(1–20) when analysed with MALDI-TOF MS or LC–MS ([…] SD: 0.073 and 0.65 nmol·min−1·mg− 1 SD: 0.01 respectively). n = 3 (independent assays). See Supplementary Table 6 for assay […]
(also on this page, place not known: KDM4E H2a(1 –20) analysed MALDI -TOF LC –MS nmol·min −1·mg−1 nmol·min−1·mg−1 0.8specific activity (nmol·min-1·mg-1)) […]
as §3
Supplementary Table 6 Summary of MS assay conditions for substrate screening. These conditions […]

[3] = test system: KDM4D; assay: LC–MS conversion (RDM and hydroxylation), KDM4D; assay type: biochemical, human; conditions: for % +16 Da / % -14 Da: 10 µM peptide
Protocol: as §2
Supplementary Figure 6 Conversion of H2a peptides with increased concentrations of KDM4D.
Comparison of combined RDM and apparent hydroxylation activities of KDM4E and KDM4D with H2a(1– 20) and H2a(1–20 )R3 me2a. (a) Representative LC–MS spectra showing (120-minute incubation) (from top to bottom) KDM4E at 2 µM, KDM4D at 2 µM, and KDM4D at 10 µM with (from left to right) H2 a(1 –2 0 ) a n d […]
shift (hydroxylation). Charge state of labelled ions: [M + H]5+. *Low-level peaks indicating ~5% – 14 Da/+16 Da. (b) Bar graph comparing % product formation by KDM4E and KDM4D of H2a(1–20) and H2a(1– 20)R3me2a; n = 3 (independent assays). Se e Supplementary Table 6 for assay conditions.
(1 picture or pasted object on this page, not shown here)
Supplementary Figure 13 Reactivity of KDM4D with the H2a peptide panel. Representative LC–MS (12 0-minute incubation) of KDM4D at 10 µM with: (a) H2 a(1 –20)R20me2a, (b) H 2 a( 1–20)R20 me2 s, (c) H 2 a( 1– […]
was observed. Charge state of labelled ions: [M + H]5+. Y-axis: relative abundance (%). (e) Bar graph and (f) […]
21)K9me3. n = 2/3 (independent assays). Conditions: 10 µM peptide, 200 µM 2OG, 100 µM sodium L-ascorbate, 10 µM (NH4)2F e ( SO 4)2, and 50 mM HEPES (pH 7.5). […]
as §3
Supplementary Table 6 Summary of MS assay conditions for substrate screening. These conditions enabled efficient turnover of established substrates. Reactions were carried out at 37 °C unless otherwise st ated. […]

[4] = Figure 3b, MALDI–TOF MS, replicate 1
[5] = Figure 3b, MALDI–TOF MS, replicate 2
[6] = Figure 3b, MALDI–TOF MS, replicate 3
[7] = MALDI–TOF MS, mean of n = 3, SD: H2a(1–20) 0.073, R3A 0.002, H2a(1–25) 0.044, H2a(10–29) 0.013
[8] = KDM4D 10 µM, 120 min, replicate 1
[9] = KDM4D 10 µM, 120 min, replicate 2
[10] = KDM4D 10 µM, 120 min, replicate 3
[11] = Figure 3b, LC–MS (*), replicate 1
[12] = Figure 3b, LC–MS (*), replicate 2
[13] = Figure 3b, LC–MS (*), replicate 3
[14] = LC–MS (marked *), mean of n = 3, SD: R20Kme3 0.04, R3me2a 0.05, H2a(1–21) 0.02

Ac - SGAGKQ GGKAR AKAKT R SSR [H2a(1–20)R3A]
+16 Da mass shift (hydroxylation) [1]: +16 Da mass shift | specific activity (hydroxylation) [2, 4]: 0.3692 nmol/min/mg | specific activity (hydroxylation) [2, 5]: 0.3698 nmol/min/mg | specific activity (hydroxylation) [2, 6]: 0.3735 nmol/min/mg | extent of hydroxylation (in words) [2]: reduced activity relative to H2a(1–20) | specific activity (hydroxylation) [2, 7]: 0.37 nmol/min/mg

Ac - SGR GKQ GGKAR AKAKT R SSK[ me 3] [H2a(1–20)R20Kme3]
activity ([3]; KDM4D): No activity was observed | % +16 Da [3, 8]: 0% | % -14 Da [3, 8]: 0% | % +16 Da [3, 9]: 0% | % -14 Da [3, 9]: 0% | % +16 Da [3, 10]: 0% | % -14 Da [3, 10]: 0% | −14 Da mass shift ([3]; KDM4D 10 µM, 120 min, LC–MS): no mass shift | specific activity (hydroxylation) [2, 11]: 0.4536 nmol/min/mg | specific activity (hydroxylation) [2, 12]: 0.3792 nmol/min/mg | specific activity (hydroxylation) [2, 13]: 0.4941 nmol/min/mg | specific activity (hydroxylation) [2, 14]: 0.44 nmol/min/mg

Ac -SGKGKGGKGL GKGGAKR HR KV [H4(1–21)R3K, reference compound]
mass shift [1]: no mass shift

Ac -SGK[me3]GKGGKGL GKGGAKR HR KV [H4(1–21)R3Kme3, reference compound]
mass shift [1]: no mass shift

Ac -SGR [me2a ]GKGGKGL GKGGAKR HR KV [H4(1–21)R3me2a, reference compound]
−14 Da mass shift (demethylation) [1]: 14 Da mass shift

Ac - SGR GKQ GGKAR AKAKT R SSA [H2a(1–20)R20A]
+16 Da mass shift (hydroxylation) [1]: lack of a +16 Da mass shift | mass shift [1]: no mass shift | specific activity (hydroxylation) [2, 4]: 0 nmol/min/mg | specific activity (hydroxylation) [2, 5]: 0 nmol/min/mg | specific activity (hydroxylation) [2, 6]: 0 nmol/min/mg | specific activity (hydroxylation) [2, 7]: no activity

Ac - SGR GKQ GGKAR AKAKT R SSK [H2a(1–20)R20K]
mass shift [1]: no mass shift | specific activity (hydroxylation) [2, 11]: 0 nmol/min/mg | specific activity (hydroxylation) [2, 12]: 0 nmol/min/mg | specific activity (hydroxylation) [2, 13]: 0 nmol/min/mg | extent of hydroxylation (in words) [2]: No evidence for hydroxylation was observed | specific activity (hydroxylation) [2, 14]: no activity
